Data taken from the supplement of paper PMC11417369.
± gives the standard deviation of the averaged measurements. This is one part of the list.

Tested on: PfAP2-I AP2 domain 3 (GST-tagged)
Assay: gcPBM binding intensity (ln(normalized median fluorescence intensity)); higher = stronger DNA binding
In short: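 The highest Masliner-normalised natural-log median intensity across replicate spots of either probe orientation is reported as binding intensity. GST-tagged P. falciparum DNA-binding domains expressed in E. coli were applied for 1 h to an Agilent 4 × 180k array of primer-extended double-stranded 36-bp intergenic genomic probes plus negative controls, and bound protein was detected with Alexa488 anti-GST antibody and scanned at 488 nm.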

| Sequence | gcPBM binding intensity (ln) |
| --- | --- |
| AAAAAGAAGAATAATACACACAAATTATTTTATATA [CACACA_site1919] | 7.43 ± 0.61 |
| TATTCCAAAAATGTGTGTACATAAATACAATATTAT [XGTACX_site2653] | 8.01 ± 0.29 |
| TTGTTAATAAAAATATTGGAAAGTTTATAAAATTTT [CACACA_negctrl_site1487] | 7.53 ± 0.52 |
| TTATTTTCTTTTTCTTGTACACACATAATATGGATG [XGTACX_site1481] | 7.9 ± 0.67 |
| ATAATATATATACAAACACACAATTGCGTCCACATT [CACACA_site8515] | 8.15 ± 0.5 |
| CATATAATTATTTTCACACATATAACTACATCTATA [CACACA_site5915] | 7.78 ± 0.41 |
| TAAGATCCTTAAAACGCATGCAGTATTTTTATTTCT [TGCATGCA_site532] | 7.49 ± 0.84 |
| TAGCCAAAAGGATATGCACACACACCCACATATATA [CACACA_site8684] | 8.59 ± 0.24 |
| ATATAAATAAAAAAAAGTACATAATATATAAAAATA [XGTACX_site3065] | 7.96 ± 0.45 |
| CTTTTACGTTTAGGATGTACATTTAAAAAAAAAGAA [XGTACX_site8032] | 8.13 ± 0.26 |
| TTAAGATGCATAAATACATGCAAAGTAAATAATTCT [TGCATGCA_site517] | 7.84 ± 0.64 |
| AATAAATATTAAATGACAAAAAAAAAAAAAAAAGGG [XGTACX_negctrl_site15] | 8.615 ± 0.049 |
| TATAATCCATAAGAAGCACACACATATATATATATT [CACACA_site8394] | 7.92 ± 0.38 |
| ATTATAAGAATTAAAAGAAACAAAATTTTAATTATA [CACACA_negctrl_site610] | 7.6 ± 0.4 |
| TTAGCAGGACGTTTGGTGCACGTACTGTTTTTCTTT [GTGCAC_site9856] | 10.14 ± 0.078 |
| TCTTTCTGCTCTTATACACACAAATAAAGATTTTTT [CACACA_site2700] | 8.29 ± 0.6 |
| CATTGACCATTAATTTGTACACAAGGGGAAATGAGG [XGTACX_site1756] | 8.19 ± 0.45 |
| TATATATATATATATATATATATATATATATATATT [CACACA_negctrl_site1440] | 9.12 ± 0.85 |
| ATGAAATTTTCATATTGTACTATTAAAAATATATTT [XGTACX_site1989] | 7.74 ± 0.43 |
| TAAGGGATATGTATATGTACATACAAATATATATAA [XGTACX_site2892] | 7.75 ± 0.47 |
| TGTAGATTTTGTAACACACACATATAAATACAGATA [CACACA_site5343] | 7.84 ± 0.48 |
| AATTTCATTTTTAGAAGTACATTTATATTAAAAATC [XGTACX_site2888] | 7.67 ± 0.4 |

| Sequence | gcPBM binding intensity (ln) |
| --- | --- |
| TTTGCTTCGATATATTCACACATTTTTTTTCTTATT [CACACA_site4499] | 7.94 ± 0.57 |
| AAATGTAATAAATATACACACACAAATATATATATA [CACACA_site8754] | 8.98 ± 0.12 |
| TTTTTTTTTTTTGTCACACATATTTGTATTAATCAT [CACACA_site5235] | 8.29 ± 0.67 |
| CAACATTTGAAACACACACACATACAAACAAACAAA [CACACA_site3306] | 8.07 ± 0.27 |
| TGAAATGGAAACAACTGTACAAAATAAATATGATAT [XGTACX_site1311] | 8.04 ± 0.71 |
| AATATTAACAATCGCACACATATTATTTTTCCAAAA [CACACA_site4982] | 8.21 ± 0.39 |
| ATATAAATATAGCATACACACAAAAAAATAAAATAA [CACACA_site2333] | 7.75 ± 0.69 |
| TTTTTATTAAAATGTATTTTAGGAAAAAACAAAAAA [XGTACX_negctrl_site437] | 7.59 ± 0.53 |
| TTCCCTTTTGTAAAATGTACATATATATTTAAACAA [XGTACX_site3263] | 8.01 ± 0.36 |
| TAAGTTCCCTTTGAATGTACATATAATGAAAAGAAA [XGTACX_site826] | 7.96 ± 0.42 |
| AAAAAACTTTTAAGCACACACATAGATAATATAGAT [CACACA_site6835] | 8.76 ± 0.092 |
| ACATCTAATTTGTATACACACAATAATAAATGGTGA [CACACA_site824] | 7.74 ± 0.46 |
| TATATATATTTATAATGTACATATTTTTTTTTATTT [XGTACX_site4761] | 8.09 ± 0.64 |
| TTGTATATATGACTTTTTTATATTTCAATTTTGTGC [CACACA_negctrl_site296] | 7.55 ± 0.51 |
| GAGATAAAATAAAACACACACATATATTTATATAAC [CACACA_site7098] | 7.76 ± 0.5 |
| TATTAATTTTTAAACATAATTTTTCGTATAATATAT [CACACA_negctrl_site762] | 7.46 ± 0.38 |
| TTTACTTTCTTATTTTCACACATTTAAAAAAAAATT [CACACA_site5949] | 8.12 ± 0.33 |
| TATGGAAGAAAATATACACACAAAAAAAAAAAATGT [CACACA_site1486] | 7.86 ± 0.66 |
| ATACTTTTATTTTTGGTGCATATATCATGTAGACGT | 10.56 ± 0.028 |
| AATTTATTATTTGTATGTACTCATATGATTCACTTA [XGTACX_site2797] | 7.84 ± 0.62 |
| AAATGAAATAAATGTAGTACACATATACAATATATA [XGTACX_site6951] | 7.79 ± 0.2 |
| TATTTTTATACAATTTAACACGGGTTATAAAATGTA [CACACA_negctrl_site566] | 7.6 ± 0.51 |

| Sequence | gcPBM binding intensity (ln) |
| --- | --- |
| TGTATATCATATATTTGTACTCAATTAATATAAACA [XGTACX_site3970] | 7.62 ± 0.3 |
| AAAATCAAGTAGTATAAAGTAAGTATCATAAAAATA [CACACA_negctrl_site1554] | 7.63 ± 0.59 |
| GTACACTAATTATGTGCACACAAATTAAAGGTCTAC [CACACA_site146] | 10.27 ± 0.049 |
| ATAATAAAATGGAGAGTGCATACATGTTTATTTTAT | 9.4 ± 0.42 |
| AGATATATTATTAGGTGTACTATAAAATAAATTCAC [XGTACX_site221] | 8.29 ± 0.21 |
| CGAACAAACAAATAAACACACAAAAAAAGATATATA [CACACA_site6944] | 7.5 ± 0.64 |
| AAAAAAAATTAGGAAACATGCATGTCCCGATAAATA [TGCATGCA_site149] | 7.79 ± 0.67 |
| AAATGTGTTTATTTAACACACAAAAGAAAAAATATA [CACACA_site6993] | 7.69 ± 0.59 |
| AATGTAAAATATATGTGTACATATGTTTATATATAT [XGTACX_site2216] | 8.36 ± 0.61 |
| GTGTGTTGTATATACTGTACATACTTTATATATAGT [XGTACX_site1876] | 8.48 ± 0.13 |
| TATAACAAGTAATGTTGTACATTGTATTATGTAATA [XGTACX_site6372] | 7.71 ± 0.31 |
| TTACTCATGAAAGATACACACATTCATTATATATAT [CACACA_site3252] | 8.27 ± 0.6 |
| TATATAAACCCGTACACACACATATATGTATATATA [CACACA_site3507] | 8.32 ± 0.18 |
| AAATTTACAATACATTGTACATATTAATAATATTCC [XGTACX_site3646] | 7.67 ± 0.5 |
| AGACATAAGATAATTACACACAATACATCCCTATAT [CACACA_site2227] | 7.76 ± 0.57 |
| TACTTCTACAAGAGAAGTACAATATTTTTTATATTA [XGTACX_site8351] | 7.42 ± 0.32 |
| AATAAAAATTTACTTTGTACACATATTAAATTCAAT [XGTACX_site1957] | 7.83 ± 0.15 |
| TTAACGTAAAATATAGTGCATAGTATCATATTGATA [GTGCAC_site9527] | 9.5 ± 0.099 |
| CAATCAAAGAAACACACACACACCTAAACATAAAAG [CACACA_site2756] | 8.07 ± 0.35 |
| TGTAGTTTGTCCCATGCATGTTCCATTAAAATATAT [TGCATGCA_site854] | 8.44 ± 0.67 |
| AATGTATATATGTAATGTACATATATAATGTATATA [XGTACX_site6510] | 7.72 ± 0.15 |
| AACTAAACAAAAGTTACACACATCATACGATATTAT [CACACA_site3180] | 7.54 ± 0.64 |

| Sequence | gcPBM binding intensity (ln) |
| --- | --- |
| ATAATTTATATTCAGAAACACACGAAAAAAAAAAAT [CACACA_site1296] | 7.93 ± 0.45 |
| ATGTTAAGAATAATTAGTACTTACATATGTATAATA [XGTACX_site4419] | 7.7 ± 0.53 |
| ACCATATAATTTTTTTGTACATAATGATTTTTTTTT [XGTACX_site1104] | 7.99 ± 0.45 |
| TATATTATATACGTCTGTACACAAATGAGAGGTAAA [XGTACX_site5538] | 8.12 ± 0.42 |
| AAAAAATAATAATAAAATGAATAGATATGTATTTAT [TGCATGCA_negctrl_site210] | 7.45 ± 0.74 |
| AATAATATATATTGTACACACAAAATGGGAAAAAAA [CACACA_site5100] | 8.21 ± 0.61 |
| TTATAAAAAAAAAAAAAAAATATATATATATATATA [XGTACX_negctrl_site592] | 9.29 ± 0.49 |
| ACAAAATGTAAATAAACACACATATATATATATATA [CACACA_site1281] | 9.4 ± 0.51 |
| AGCAGAGTTACAATTTGTACGTAATTGATATAGATA [XGTACX_site4051] | 7.88 ± 0.5 |
| AACATATTATCTTGTGAAAATAATATAAGTCACATT [TGCATGCA_negctrl_site339] | 7.38 ± 0.63 |
| ATATATATATATATTTGTACAGAAAATATTTTAATA [XGTACX_site3706] | 9.09 ± 0.73 |
| AAAAAATAATTGAAGTGTACGTACAATGATTTTACT [XGTACX_site7663] | 8 ± 0.57 |
| GTATTCTACAGACACATACACACATATATATATATA [CACACA_site3427] | 9.42 ± 0.54 |
| AAGAAAAACTTTACGTGTACCAAACATCCTGCCGAC [XGTACX_site4895] | 7.79 ± 0.73 |
| TAAACCTTAAAATATTTCTCATGTTTAACTTATATT [GTGCAC_negctrl_site233] | 7.58 ± 0.59 |
| TTATAATATTGTGGTATACACACCTTACAAAAAGGT [CACACA_site2878] | 7.96 ± 0.67 |
| GGGAGAAATTTATACATACACACATATATATATTAT [CACACA_site4039] | 7.81 ± 0.48 |
| TACAATGTGGATAATTGTACAAAACCGATAAGAGGG [XGTACX_site6453] | 8.53 ± 0.52 |
| TTATATACCCTAATATGTTTTATTATTATTATATAT [TGCATGCA_negctrl_site6] | 7.7 ± 0.63 |
| TATATTCTACAAGAATTATGAATTGTCAGACCAAAT [CACACA_negctrl_site1101] | 7.45 ± 0.66 |
| TTTATTTTCATATGAACACACATATATATATTATAA [CACACA_site2369] | 8.22 ± 0.31 |
| TGTTCTGAACGGTTCATGCACTTTTTTTTGTTAATT | 8.82 ± 0.42 |
